# “And” between values parts separate entries of the source, which are not always exact repeats. Equal entries are not always repeated. Some of the results follow. Further columns of the screen follow, without active or inactive calls.
# How the values were obtained:
# Assay in all cases: Primary Screen for Target Class Profiling of Small Molecule Inhibitors of Methyltransferases
# [1] = target: Glycine N-methyltransferase (Homo sapiens) (UniProt Q14749); conditions: purified enzyme, MTase-Glo SAH luminescence; measured here: GNMT inhibition; at 40 µM; stronger effect = lower value
# Summary of the method: (§1)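 Each enzyme was reacted with SAM and its substrate, with compounds tested once at 40 uM; SAH formed was read by MTase-Glo luminescence.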
# [2] = target: Guanidinoacetate N-methyltransferase (Homo sapiens) (UniProt Q14353); conditions: purified enzyme, MTase-Glo SAH luminescence; measured here: GAMT inhibition; at 40 µM; stronger effect = lower value
# Summary of the method: as §1
# [3] = target: Histamine N-methyltransferase (Homo sapiens) (UniProt P50135); conditions: purified enzyme, MTase-Glo SAH luminescence; measured here: HNMT inhibition; at 40 µM; stronger effect = lower value
# Summary of the method: as §1
# [4] = target: Nicotinamide N-methyltransferase (Homo sapiens) (UniProt P40261); conditions: purified enzyme, MTase-Glo SAH luminescence; measured here: NNMT inhibition; at 40 µM; stronger effect = lower value
# Summary of the method: as §1
# [5] = target: Phenylethanolamine N-methyltransferase (Homo sapiens) (UniProt P11086); conditions: purified enzyme, MTase-Glo SAH luminescence; measured here: PNMT inhibition; at 40 µM; stronger effect = lower value
# Summary of the method: as §1
# On the % scale 0 is the no-effect control and ±100 the full control effect.
Compound,"activity change, negative = inhibition [1]","activity change, negative = inhibition [2]","activity change, negative = inhibition [3]","activity change, negative = inhibition [4]","activity change, negative = inhibition [5]"
CCCOc1ccc(CN2C(=O)c3c(C(=O)OC)ncn3CC2(C)C(=O)NCc2ccccc2)cc1 (stereo not given),6.97%,0.387%,14.6%,0.525%,10.9%
CCc1ccccc1NC(=O)Cn1nc2n(CC(C)C)c(=O)c3ccc(C(=O)NC(C)C)cc3n2c1=O,5.29%,0%,5.61%,1.66%,0.335%
Cc1ccc(O[C@H]2COCC[C@H]2NC(=O)c2ccc(-c3ccn[nH]3)cc2)cn1,-2.36%,3.75%,2.25%,0.434%,2.73%
C[C@]1(OC(=O)/C=C/c2ccccc2)C[C@H](O)[C@]2(O)C=CO[C@@H](O[C@@H]3O[C@H](CO)[C@@H](O)[C@H](O)[C@H]3O)C12 (stereo not given in full),0%,8.39%,9.21%,-3.75%,3.89%
COCC(=O)Nc1ccc([C@H]2OCC(=O)N[C@@H]2CO)cc1,-3.41%,1.74%,1.08%,0.81%,0.313%
CCCn1c(=O)c2cc(Cl)ccc2n2c(SCC(=O)Nc3ccccc3CC)nnc12,-7.89%,-0.935%,5.62%,-7.11%,-1.18%
NCCS(=O)O,5.38%,8.36%,9.79%,-6.05%,1.19%
Cc1cc(C)cc(NC(=O)CSc2nnc3n(Cc4ccc(F)cc4)c(=O)c4ccccc4n23)c1,4.45%,0%,5.02%,5.35%,5.14%
CCS(=O)(=O)Nc1ccc(C2(C(=O)NCc3cccc(Cl)c3)CCC2)cc1,-8.79%,-13.2%,-7.17%,-20.6%,-18.8%
C=CCCCC(=O)Nc1ccc(NC(=O)C(C)(C)C)c(OC)c1,-3.33%,1.66%,-2.01%,-2.07%,-5.68%
CC(C(=O)O)c1ccc(/C=C2\CCCCC2=O)cc1 (stereo not given),-6.98%,1.62%,3.55%,-10.8%,0.346%
Cn1c(=O)n(C)c2cc(S(=O)(=O)N3CCN(c4ccccc4F)CC3)ccc21,-4.76%,-1.99%,-10.8%,-15%,-10.8%
CC1(C)CCC[C@@]2(C)[C@H]1[C@H](O)C=C1COC(=O)[C@@]12O,0%,9.75%,9%,-4.14%,8.73%
CN(C)c1cccc(-c2nc(-c3nnn4c3COC(c3ccccc3Cl)C4)no2)c1 (stereo not given),-0.038%,0.147%,0.968%,-4.41%,14.5%
CCCCN1C(=O)c2cc(C(=O)Nc3ccc(F)cc3Cl)nn2CC1(C)C(=O)NC1CCCC1 (stereo not given),0.684%,0%,-16.3%,-4.46%,-2.09%
O=C(NCCc1ccccc1)c1cc(-c2ccc(F)cc2)nc2n[nH]c(-c3ccccc3)c12,-3.9%,0.313%,-10.4%,-6.75%,-7.99%
O=C(c1ccc2c(=O)nc3c(-c4ccc(Cl)cc4)n[nH]n3c2c1)N1CCN(c2ccccc2)CC1,-4.44%,4.97%,4.01%,7.55%,3.48%
CC1(C(=O)NC2CCCCCC2)Cn2c(cc3occc32)C(=O)N1CCc1ccc(Cl)cc1 (stereo not given),-0.086%,3.24%,6.91%,-0.336%,1.84%
COc1ccc(C(=O)Cn2nc3n(CCC(C)C)c(=O)c4ccc(C(=O)NCC(C)C)cc4n3c2=O)cc1,3.38%,0%,5.9%,-1.02%,5.74%

Compound,"activity change, negative = inhibition [1]","activity change, negative = inhibition [2]","activity change, negative = inhibition [3]","activity change, negative = inhibition [4]","activity change, negative = inhibition [5]"
OCC1O[C@H]([S-])[C@H](O)[C@@H](O)[C@@H]1O.[Au+] (stereo not given in full),-25.2%,-12%,-16.6%,-13.9%,0.608%
COc1ccc([C@H]2C[C@@H](O)[C@@H](O)[C@@H]2NCc2ccc(OC)nc2)cc1,0.944%,-9.28%,-3.88%,-10.8%,-10%
COCc1cccc(C(=O)N2CC[C@@]3(O)CCN(S(C)(=O)=O)C[C@H]3C2)n1,-3.94%,-0.052%,0.087%,-4.55%,8.75%
O=C1CCN(C(=O)Cc2cccc(F)c2)CCCCCCN1,-0.379%,-0.666%,-1.2%,1.46%,-0.736%
CC(C)CC(=O)c1c(O)cc2c(c1O)C(CC(C)C)C1=C(O2)C(C)(C)C(=O)C(C)(C)C1=O (stereo not given),-3.85%,-9.84%,1.33%,-22.8%,-1.55%
O=C1CN(C(=O)c2cccc(C(F)(F)F)c2)CC(OCc2cccnc2)CN1CC1CCOCC1 (stereo not given),-3.58%,-10.9%,-5.64%,-17.1%,-11.1%
CC1CCN(S(=O)(=O)c2cc3[nH]c(=O)[nH]c3cc2Cl)CC1,-6.64%,3.61%,1%,-12.8%,-12.9%
CCCN1C(=O)c2c(C(=O)NCc3cc(OC)ccc3OC)ncn2CC1(C)C(=O)NCc1ccccc1 (stereo not given),-5.74%,4.2%,3.13%,6.5%,-3.9%
CC(C)NC(=O)c1ccc2c(=O)n(C(C)C)c3nn(CC(=O)NCc4ccc(Cl)cc4)c(=O)n3c2c1,9.05%,1.38%,6.15%,1.92%,8.13%
CC1c2cccn2CCN1C(=O)Nc1ccccc1Cl (stereo not given),-9.39%,-1.55%,-14.2%,-23.5%,-9.86%
CCCSCCCN1C(=O)c2nc3ccccc3n2CC1(C)C(=O)NC1CCCC(C)C1C (stereo not given),3.1%,0%,5.11%,-3.51%,-1.7%
CC(C)NC[C@H](O)c1ccc(O)c(O)c1,-27.4% and -14.5%,-3.67% and 6.22%,-7.8% and -0.122%,-14.1% and -8.08%,-8.89% and -3.31%
CC(C)Oc1ccc(CN2C(=O)c3oc4ccccc4c3OCC2(C)C(=O)NC2CCCC2)cc1 (stereo not given),-7.52%,4.6%,1.2%,0.038%,1.53%
CCC(=O)N(C1CCOCC1)C1CCN(Cc2ccc[nH]2)CC1,-5.61%,1.29%,1.18%,-4.53%,-0.09%
CCc1cc2c(cc3n2CC(C)(C(=O)NC2CCCCCC2)N(Cc2ccccc2)C3=O)s1 (stereo not given),2.27%,0%,8.99%,-1.35%,1.6%
CC(=O)OC1CC2C3(C)CCC(OC(=O)CC(=O)O)C(C)(C)C3CCC2(C)C2(C)CCC(C3(C)CCC(=O)O3)C12 (stereo not given),4.93%,2.52%,12.7%,-13.1%,3.31%
Cc1ccc(C(=O)Cn2nc3n(Cc4ccccc4)c(=O)c4ccc(C(=O)NC(C)C)cc4n3c2=O)cc1,5.71%,1.66%,6.81%,2.02%,6.12%
COC(=O)C1=CO[C@@H](O[C@@H]2O[C@H](CO)[C@@H](O)[C@H](O)[C@H]2O)[C@H]2[C@@H]1C=C[C@]21C=C([C@H](C)OC(=O)/C=C/c2ccc(O)cc2)C(=O)O1,-5.76%,-9.48%,2.71%,-20.4%,0%
O=C(NCc1cccnc1)C1CN(S(=O)(=O)C2CC2)CC12CCCCC2 (stereo not given),-1.84%,-0.014%,0.702%,1.13%,-2.13%

Compound,"activity change, negative = inhibition [1]","activity change, negative = inhibition [2]","activity change, negative = inhibition [3]","activity change, negative = inhibition [4]","activity change, negative = inhibition [5]"
O=C(NC1CCCC1)c1ccc2c(c1)n(Cc1cccc(F)c1)c(=O)c1ccnn12,-1.19%,-2.37%,-1.27%,-3.21%,-0.015%
CCCSCCCN1C(=O)c2nc3ccccc3n2CC1(C)C(=O)NC1CCC(C)CC1 (stereo not given),-4.45%,1.57%,0.508%,-2.93%,-3.85%
CCOc1ccccc1CN1C(=O)c2nc3ccccc3n2CC1(C)C(=O)NC1CCCCC1 (stereo not given),-0.577%,4.2%,-5.04%,-13.8%,-4.54%
O=C(CCn1ccc2cc(S(=O)(=O)N3CCCCC3)ccc21)NCCCc1ccccc1,5.25%,0%,8.67%,5.24%,5.48%
COc1ccc(CNC(=O)CCc2nnc3n(CCc4ccccc4)c(=O)c4ccccc4n23)cc1,-8.66%,4.61%,3.75%,6.01%,-1.49%
O=C(c1n[nH]c2c1CCCC2)N1CCc2nc3cc[nH]n3c(=O)c2C1,-18.1%,-11.8%,-8.82%,-14%,-11.7%
Cc1ccc(CNC(=O)C2(C)Cn3cnc(C(=O)Nc4ccc(Cl)cc4F)c3C(=O)N2C2CC2)cc1 (stereo not given),-3.54%,0%,8.38%,-0.321%,2.7%
O=c1c2ccccc2n2c(-c3cccc(Br)c3)nnc2n1Cc1ccc(F)cc1,3.25%,1.32%,7.62%,1.55%,3.18%
CC1CCN([C@@H]2[C@H](O)[C@H](CO)O[C@@H]2CN(Cc2ccc(F)cc2)Cc2ccc(F)cc2)CC1,3.51%,3.6%,-0.053%,4.05%,2.12%
CCOc1ccc(CCN2C(=O)c3cc(C(=O)OC)nn3CC2(C)C(=O)NC2CCC(C)CC2)cc1 (stereo not given),1.4%,0%,4.4%,-1.41%,2.53%
COC(=O)C1=CO[C@@H](O[C@@H]2O[C@H](CO)[C@@H](O)[C@H](O)[C@H]2O)[C@@H]2C(COC(C)=O)=C[C@H](O)[C@H]12,1.6%,2.29%,5.03%,-8.66%,3.38%
CCCC1c2ccc(C)n2CCN1C(=O)Nc1ccccc1CC (stereo not given),-7.61%,3.25%,-13%,-2.24%,-6.27%
Cc1cccc(CNC(=O)c2cc3n(n2)CC(C)(C(=O)NC2CCCCC2)N(C)C3=O)c1 (stereo not given),5.98%,0%,6.29%,9.6%,2.74%
COc1ccccc1CNC(=O)C1(C)Cn2nc(-c3ccccc3)cc2C(=O)N1Cc1ccccc1OC (stereo not given),-3.02%,4.18%,-0.606%,-8.43%,-2.89%
Cc1ccc(Cn2c(=O)c3ccccc3n3c(CCC(=O)NCc4ccccc4)nnc23)cc1,-0.225%,0%,7.78%,2.08%,0.739%
COCCCN1C(=O)c2nc3ccccc3n2CC1(C)C(=O)NC1CCC(C)CC1 (stereo not given),-7.17%,-3.05%,1.44%,-7.22%,-9.32%
Cn1c(C(=O)Nc2ccc3c(c2)OCO3)cc2c1CCN(Cc1cccc(F)c1)C2,-12.9%,-9.62%,-28.1%,-26.2%,-35.5%
Cn1c(=O)c2ccc(C(=O)NC3CCCC3)cc2n2c(=O)n(CC(=O)NCc3ccccc3)nc12,3.54%,0.254%,4.03%,5.15%,2.99%
CC(=O)C1=CCC2C3CCC4CC(O[C@@H]5O[C@H](CO)[C@@H](O[C@@H]6O[C@@H](C)[C@H](O)[C@@H](O)[C@H]6O)[C@H](O)[C@H]5O[C@@H]5O[C@H](CO)[C@@H](O)[C@H](O)[C@H]5O)CCC4(C)C3CCC12C (stereo not given in full),6.71%,5.12%,1.03%,-7.63%,8.32%
